T1: UNK ZnF1-3 (human, UniProt Q9C0B0 31-174)
T1 sequence: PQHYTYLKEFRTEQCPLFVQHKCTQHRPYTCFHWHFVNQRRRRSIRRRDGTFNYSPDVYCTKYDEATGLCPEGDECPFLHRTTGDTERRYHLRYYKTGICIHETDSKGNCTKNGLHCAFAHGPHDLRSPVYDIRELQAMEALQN

B1: chr4:76721835:76721836:+_ENSG00000138768_ENST00000264904|hu_mus|hu_hu_hu_mus_True|1_108 (ssRNA)
RNA: GGGAGUUCUACAGUCCGACGAUCGUUGGCUGGGGUUUUCUGAGACGCUCUGGAAUAUAACUCAUGUUUGCUAAUAAAUCCUAGUUUCUCUAUGAAAUUCUCUUUGCCAAUCCUCUUCUCUAUUAGUUGCUUUAGUUCUCUUUCCAACAGAGGAUUGAGCAUCA
B2: chr1:174042033:174042034:+_ENSMUSG00000026553_ENSMUST00000135192|mus_hu|FALSE|FALSE (ssRNA)
RNA: GGGAGUUCUACAGUCCGACGAUCGGGACGACACUCCCUGUCUAGGCAGUAUACAUUGUUGCCCUUCACCCGUGUGACAUAGAUGGGUAAAUCCAGAGUUCGAAUGAUCCCGUGGUCCCCAGUGGUGACAGCAUAUUUGAUGUGCAACAGAGGAUUGAGCAUCA
B3: chr11:116106860:116106861:-_ENSMUSG00000020780_ENSMUST00000021133|mus_mus|motif|central (ssRNA)
RNA: GGGAGUUCUACAGUCCGACGAUCGAGGCACAGGGGACACAGAGACCCUGACUCUGGGCCCAGAAGAUGACAGGCGGCAAAAGUAAGUCACAAACACACAAGAUGAACGGCCGCAGGGCUGAGGGUGCUGAGCUCUGCCCCAGCCAACAGAGGAUUGAGCAUCA
B4: chr2:129025431:129025432:+_ENSMUSG00000027397_ENSMUST00000028880|mus_mus|FALSE|FALSE (ssRNA)
RNA: GGGAGUUCUACAGUCCGACGAUCUUGCCACAGUAGAUUCCAUUCUCUAGUGUAGUGGUUCUUUAAAUAAUAAGAGAAUUACUAAGCGGCUUUUGAGAUGUGUAAACGGAAUGAGGUAUCAAAAUGCUAUAAUAAAUAGUAUAUCAACAGAGGAUUGAGCAUCA
B5: chr16:14041815:14041816:+_ENSG00000175595_ENST00000311895|hu_mus|FALSE|FALSE (ssRNA)
RNA: GGGAGUUCUACAGUCCGACGAUCGGGGCACCAGAGCAGCCGCAAACGCGGGAAGUGCAAGGUGAGGAGCGUAAGCUUGGAGCUCACAUCGCUGCUGCUCAUCUCCUGGAAGAAGGCACCUCGUGGCGCCAGGGAGAAGGGCUUCAACAGAGGAUUGAGCAUCA
B6: 64826014_64827627_1440_CDS_ENSMUSG00000034263_ENSMUST00000170517|mouse|control|control (ssRNA)
RNA: GGGAGUUCUACAGUCCGACGAUCCUUCUUGCUGUCUGCUUGGGAGUAGAGCAUUCCAUGCCAUUCAGGCCCUAGUUGGACAAGUGCCACCAUUCCUUCCACCUUCAGGCUGCCGUGGAGCAGGACACAGAAGUUGGGUAUUUUCAACAGAGGAUUGAGCAUCA
B7: chr2:37458628:37458629:-_ENSMUSG00000026915_ENSMUST00000072186|mus_hu|FALSE|FALSE (ssRNA)
RNA: GGGAGUUCUACAGUCCGACGAUCCUUAUACUGAAGCCCAGGCCUGAUCUGAUUUAGCCUCAUUAGUGCAUUCAUAAGGUCUAUUGCUUUACUAUCCAGAAUUUUCCUUAAGUUUCGUUUCAUCUUCUUGUUGGGGUCUUUAUCCAACAGAGGAUUGAGCAUCA
B8: 42271357_42271477_1278_3pUTR_ENSG00000087152_ENST00000454077|human|control|control (ssRNA)
RNA: GGGAGUUCUACAGUCCGACGAUCCUCACAGAAUAAAUAGGAAAACCGCCUCCCCACCAAACUUAUGUCCAAGGCAUAAUAUGUCCAGGUCUGAGUCCUGCACGCCGAGGAGUCGUGCUCCAUUGCAGAGGACUUUGACACCCCCAACAGAGGAUUGAGCAUCA
B9: chr12:16052864:16052865:+_ENSG00000023734_ENST00000419869|hu_hu|FALSE|FALSE (ssRNA)
RNA: GGGAGUUCUACAGUCCGACGAUCCCAUAGUCUCAAUGUUCCAUCUUCUGAACCACUGGCAUAGAGUUCUCCAUCAGGACUAAAUCUCACACAGUGAAUAGGACCAAAGUGUCCCUUGUAGGAUUCUAAUUCUUCUCCACUAUUCAACAGAGGAUUGAGCAUCA
B10: chr14:78183846:78183847:+_ENSG00000119705_ENST00000557342|hu_hu|hu_hu_hu_mus_False|48_48 (ssRNA)
RNA: GGGAGUUCUACAGUCCGACGAUCUCUCAGAAAUCUUUCUUCAUCAGAUGUUUGAGCUCCGUGCAAAGCCUUUGCUCUUUGAGCUUGAACCUGGACCUAUGGGAGGGAAAGCACUGUCAGAAAAGGUAAUUUUUUUUUUAAAGACAACAGAGGAUUGAGCAUCA
B11: chr15:25616465:25616466:-_ENSG00000114062_ENST00000438097|hu_hu|FALSE|FALSE (ssRNA)
RNA: GGGAGUUCUACAGUCCGACGAUCCGCUUUGCAAAAUAAUGGCAAAGCCAUUUCCAGAUAUUCAGGACUGUGGAGAUUUCUAUUCUCCAUUACGAUAAUGAACAAAUUCAGAUAAUUAGGAUCUCGAGAGUAUACAUUGUGAUACAACAGAGGAUUGAGCAUCA
B12: chr3:41266964:41266965:+_ENSG00000168036_ENST00000349496|hu_hu|FALSE|FALSE (ssRNA)
RNA: GGGAGUUCUACAGUCCGACGAUCGAUGGCCAGUAAGCCCUCACGAUGAUGGGAAAGGUUAUGCAAGGUCCCAGCGGUACAACGAGCUGUUUCUACAUCAUUUGUAUUCUGCAUGGUACGUACAAUAGCAGACACCAUCUGAGGCAACAGAGGAUUGAGCAUCA
B13: chr2:198351390:198351391:-_ENSG00000144381_ENST00000345042|hu_hu|hu_hu_hu_mus_False|1_68 (ssRNA)
RNA: GGGAGUUCUACAGUCCGACGAUCUCAUUCCCACCCUCCACAGAAAGGCUGCUUCUGAACUCUCAUGGUGGUGGCAAGCGCUACAGUCCUGAUGCUCACAGAACAGUAGAGAUGCCUCAGUGAUUUAAGUUGAAAGCAGCAGUACAACAGAGGAUUGAGCAUCA
B14: chr2:168006541:168006542:-_ENSMUSG00000051149_ENSMUST00000088001|mus_hu|FALSE|FALSE (ssRNA)
RNA: GGGAGUUCUACAGUCCGACGAUCUUACAUUAAGCACAAUACAGCAAUUUAUUUAGAUGCUUAAAAUGAAUACAAAGGGAAAAUAAAGAUCACAAAAUUAUACAUACUACAACAGUGUGUCAUAUAUUAGAUGGUAUAAAUGAACAACAGAGGAUUGAGCAUCA
B15: chr13:41369065:41369066:+_ENSMUSG00000091264_ENSMUST00000165561|mus_mus|FALSE|FALSE (ssRNA)
RNA: GGGAGUUCUACAGUCCGACGAUCCUAGAGCACUGGCCAUGCAACAUUUCCAGAAGGGCUGCUCGACACUGCCUUCUGUCUAAUACCAGCAAACAGCUUUGGAUAAAACCUUGGAUGUCUUAAUGGCAGUUCACUCUGUGAUGCCAACAGAGGAUUGAGCAUCA
B16: chr10:120830595:120830596:-_ENSG00000107581_ENST00000369144|hu_mus|FALSE|FALSE (ssRNA)
RNA: GGGAGUUCUACAGUCCGACGAUCUUUGAAAGCUUGUUGGGCGAUAUCAUGGUAAAGGCGCUCUACUCUAGAAUUGUUUCGAAGAAGGUCCAAACACUGCCUGUAUGAUUCCCACAGGAACUUGACCCAGGGAGUCAGUAGCAACAACAGAGGAUUGAGCAUCA
B17: chr2:60072956:60072957:+_ENSMUSG00000026977_ENSMUST00000102748|mus_hu|motif|central (ssRNA)
RNA: GGGAGUUCUACAGUCCGACGAUCCGCACUUUUAGUUUUAUCACUUUUACCAUCAGCUGAAUUCCAACCUGAAGGAAUAAUAUCGGCUGUGAUCAUGACAUUGUCGGUCAAAUUACUCCCAAGUGCUGGAGGGACUGCAAACCGCAACAGAGGAUUGAGCAUCA
B18: chr1:63113421:63113422:-_ENSG00000116641_ENST00000251157|hu_hu|motif|central (ssRNA)
RNA: GGGAGUUCUACAGUCCGACGAUCUAAGCAUUUUACAAGAAGUCUUUGACCAAAAUGUUCUUUGGGUAUAUCAGGAACACGGAGCCGUUCUAUUGGUUCUUCCUCAUCUGGUGAUGGAUGCAAAGCAAAAAGUUCUUUGUGACGCAACAGAGGAUUGAGCAUCA
B19: chr4:17845017:17845018:+_ENSG00000109805_ENST00000514176|hu_hu|FALSE|FALSE (ssRNA)
RNA: GGGAGUUCUACAGUCCGACGAUCCUUUCCUAACUUAGAUCUUCAUUGAGAAAUUGGGCAAGGUUAAGUUUACUUUUUUCUAGUGCUGCGGUUUUGGCUCGUCUUGGUAGUCUCAUCUUCAUUUCUGAUUCUGGUUCUGGAACUCAACAGAGGAUUGAGCAUCA
B20: chr5:23024286:23024287:-_ENSMUSG00000062604_ENSMUST00000088392|mus_mus|motif|central (ssRNA)
RNA: GGGAGUUCUACAGUCCGACGAUCGCAAGCUGUACUCCAAAUGUCUGCAGGUGUGCUGUAGCCUGCUCCUAUUAAAACCUCGGUGGACCUAUACUGACGUGUCUGGAUAUCCUCUGUGAAAUGUUUAUGCACCCAACAAGCAUUCAACAGAGGAUUGAGCAUCA
B21: chr11:111909998:111909999:+_ENSG00000150768_ENST00000533297|hu_hu|FALSE|FALSE (ssRNA)
RNA: GGGAGUUCUACAGUCCGACGAUCACCCUUCCCUUUGGUCCAGCAGGAGUAGCUGGGCAGGGUGCUGAAGGUGUAGGAGCUAAAGGCUGGGGAGUUGGAGGAACAGCGGCCACCGGGGGUGGGGUAGGUGGUGGCACUUGUGGUCAACAGAGGAUUGAGCAUCA
B22: chr7:141450121:141450122:+_ENSG00000106028_ENST00000265304|hu_mus|hu_hu_hu_mus_True|8_68 (ssRNA)
RNA: GGGAGUUCUACAGUCCGACGAUCUCAUCCGUUCUAUGCCUUUUCUUUUGUCUGGUCACUCAGAAAUAUAAUAUUAUCAGCUAUGAUUGUUGUUGCUUGCCGCCUCACAUUGUUUUUAUCCAUGUACUCACCAUAGUCCACUUUCAACAGAGGAUUGAGCAUCA

The other results are listed elsewhere or left out.

The assay addresses T1, UNK ZnF1-3. In words: nsRBNS (natural sequence RNA bind-n-seq); RBNS binding buffer (assumed for nsRBNS): 25 mM Tris pH 7.5, 150 mM KCl, 3 mM MgCl2, 0.01% Triton X-100, 500 ug/ml BSA, 20 U/ml SUPERase-In, 4 C; UNK is unkempt and MSI1 is Musashi-1; names of the RNAs are library labels; protein concentration not given here; high values mean tight binding.
B1 returned a binding signal of 0.475 enrichment R.

As to B2, the binding signal was 0.919 enrichment R.

With B3, the binding signal was found to be 1.52 enrichment R.

Turning to B4, the binding signal was found to be 1.39 enrichment R.

In turn, B5 had a binding signal of 1.31 enrichment R.

The molecule B6 registered a binding signal of 1.13 enrichment R.

B7 gave a binding signal of 0.447 enrichment R.

In turn, B8 displayed a binding signal of 1.02 enrichment R.

Molecule B9 displayed a binding signal of 0.664 enrichment R.

As for B10, the binding signal was determined as 0.98 enrichment R.

Molecule B11 yielded a binding signal of 0.528 enrichment R.

B12: the binding signal stood at 0.991 enrichment R.

Turning to B13, the binding signal turned out to be 1.17 enrichment R.

For the molecule B14, the binding signal was 1.84 enrichment R.

For B15, the binding signal is 1.08 enrichment R.

The molecule B16 gave a binding signal of 0.573 enrichment R.

In turn, B17 registered a binding signal of 0.666 enrichment R.

B18: the binding signal worked out at 0.874 enrichment R.

Molecule B19 had a binding signal of 0.392 enrichment R.

B20: the binding signal was found to be 0.994 enrichment R.

B21 had a binding signal of 1.76 enrichment R.

Consider B22, for which the binding signal is 0.514 enrichment R.

The values above are taken from publication PMC12136788.
